Assay results: PubChem BioAssay (NCATS)
Inconclusive results, whose numbers are uncertain, are shown with a selection of clear calls. Potencies beside an inconclusive call are fits to weak or partial responses and may not hold up. Activity calls are given as the source filed them. The call rests on the fitted dose curve; in most records, active means well fitted curve in the direction sought with a large enough effect; inconclusive means small, poorly fitted or top-dose-only effect, or another doubt; inactive means no such curve, though single readings can be large; an effect the other way counts as inactive or inconclusive.

Assays:
[1] = qHTS of pediatric cancer cell lines to identify multiple opportunities for drug repurposing: Primary screen for RD cells (AID 1347104); details: RD rhabdomyosarcoma viability, CellTiter-Glo luminescence, 48 h; series mostly up to 46 µM; further: nearly all actives have a fitted effect of over 55% in size;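 on activity change, negative = cytotoxic: plate controls were DMSO for no effect and bortezomib for full effect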
Method in brief: (§1)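 Cells plated at 500-1,000/well in growth medium, compounds added after 5 h. MIPE tested at 11 points (from 0.78 nM), NPC at 8 points (from 0.59 nM). CellTiter-Glo luminescence after 48 h; concentration-response curves from primary screen.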

[2] = qHTS of pediatric cancer cell lines to identify multiple opportunities for drug repurposing: Primary screen for Rh41 cells (AID 1347108); details: Rh41 rhabdomyosarcoma viability, CellTiter-Glo luminescence, 48 h; series mostly up to 46 µM; further: nearly all actives have a fitted effect of over 70% in size;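 on activity change, negative = cytotoxic: luminescence drop marks cytotoxic hits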
Method in brief: as §1

[3] = qHTS of pediatric cancer cell lines to identify multiple opportunities for drug repurposing: Primary screen for MG 63 (6-TG R) cells (AID 1347105); details: MG 63 (6-TG R) viability, CellTiter-Glo, 48 h; activity change, negative = cytotoxic: at 46 µM (top of the series) unless noted; further: nearly all actives have a fitted effect of over 50% in size; on activity change, negative = cytotoxic: on the % scale 0 is the no-effect control and ±100 the full control effect
Method in brief: as §1

[4] = qHTS of pediatric cancer cell lines to identify multiple opportunities for drug repurposing: Primary screen for Rh30 cells (AID 1347107); details: Rh30 rhabdomyosarcoma viability, CellTiter-Glo luminescence, 48 h; series mostly up to 46 µM; further: nearly all actives have a fitted effect of over 75% in size
Method in brief: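 Viability after 48 h compound treatment at 37C, 500-1,000 cells/well, read as ATP luminescence with CellTiter-Glo. Primary screens used 11-point (MIPE, 0.78 nM-46 µM) or 8-point (NPC, 0.59 nM-46 µM) final concentrations; follow-up screens used 11-point dilutions.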

[5] = qHTS of pediatric cancer cell lines to identify multiple opportunities for drug repurposing: Confirmatory screen for SK-N-MC cells (AID 1347111); details: SK-N-MC cell viability; series mostly up to 45.9 µM;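 further: cells exposed to compound for 48 h before the readout; nearly all actives have a fitted effect of over 70% in size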
Method in brief: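 SK-N-MC cells at 500-1,000 cells/well in growth media were pre-incubated 5 h, then exposed to compounds at 11-point dilutions for 48 h at 37 degrees C, 5% CO2. Viability was read as CellTiter-Glo luminescence.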

[6] = qHTS of pediatric cancer cell lines to identify multiple opportunities for drug repurposing: Confirmatory screen for A673 cells (AID 1347110); details: A673 Ewing sarcoma cell viability; series mostly up to 45.9 µM; further: nearly all actives have a fitted effect of over 65% in size
Method in brief: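 Cells plated at 500-1,000/well were treated five hours later with multi-point dilutions up to 46 µM final. After two days, CellTiter-Glo was added and luminescence read.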
Potency means the concentration at half of the fitted maximal effect; tags describe the fitted curve by direction and shape.

**Q.** Which Potency [1] does the source give for `CC(C)(C)NC[C@H](O)COc1cccc2c1CCCC2=O` here?
**A.** The Potency was “inactive”.

**Q.** What about the Potency [2] of the same compound?
**A.** Its Potency is inconclusive: 18.8 µM [cytotoxic, partial curve, poor fit].

**Q.** With `O=C1NC(=O)C(c2ccccc2[N+](=O)[O-])=C1Nc1ccc(O)c(Cl)c1` as the compound, how does the Potency [3] read?
**A.** Its Potency is inconclusive: 9.35 µM [cytotoxic, partial curve, poor fit].

**Q.** With `C#CC(C)(CC)OC(=O)c1ccccc1C(=O)O` (stereo not given) as the compound, how does the Potency [3] read?
**A.** Its Potency is “inactive”.

**Q.** For `Oc1ccc(/C=C/c2cc(O)cc(O)c2)cc1`, which Potency [3] is on record?
**A.** The Potency was inconclusive: 13.3 µM [cytotoxic, partial curve, poor fit].

**Q.** What does the source list for `O=C1CCc2ccc(OCCCCN3CCN(c4cccc(Cl)c4Cl)CC3)cc2N1`?
**A.** Potency [1]: inconclusive: 18.7 µM [cytotoxic, partial curve]; Potency [2]: inconclusive: 33.2 µM [cytotoxic, partial curve, poor fit]

**Q.** What does the source list for `CC(C)(C(=O)NCC(F)(F)C(F)(F)F)C(=O)N[C@@H]1C(=O)Nc2ccccc2-c2ccccc21`?
**A.** Potency [1]: inconclusive: 4.69 µM [cytotoxic, partial curve]; Potency [4]: inconclusive: 16.6 µM [cytotoxic, partial curve]; Potency [2]: inconclusive: 13.2 µM [cytotoxic, partial curve]; Potency [5]: inconclusive: 18.5 µM [cytotoxic, partial curve, poor fit]

**Q.** With `NCCCNCCSP(=O)(O)O` as the compound, how does the activity change, negative = cytotoxic [1] read?
**A.** Its activity change, negative = cytotoxic is inactive: 5.99% [at 9.22 µM].

**Q.** What about the activity change, negative = cytotoxic [2] of the same compound?
**A.** The activity change, negative = cytotoxic was inactive: 20.1% [at 9.22 µM].

**Q.** What about the Potency [6] of the same compound?
**A.** Its Potency is inconclusive: 4.28 µM [cytotoxic, partial curve, poor fit].

**Q.** What about the Potency [5] of the same compound?
**A.** Its Potency is inconclusive: 4.8 µM [cytotoxic, single point].
